# Experimental data from the supplement of paper PMC8728848.
# The list shows a part of the results.
# B1: Calsepa (Calystegia sepium), P93114 (protein)
# chain: MAVPMDTISGPWGNNGGNFWSFRPVNKINQIVISYGGGGNNPIALTFSSTKADGSKDTITVGGGGPDSITGTEMVNIGTDEYLTGISGTFGIYLDNNVLRSITFTTNLKAHGPYGQKVGTPFSSANVVGNEIVGFLGRSGYYVDAIGTYNRHK
# Legend:
# Test in all cases: glycan array binding signal (z-score within array); higher = stronger binding
# Conditions in all cases: glycan notation: IUPAC condensed, linker removed
# [1] = molecular target: Neu5Ac(a2-6)Gal(b1-4)GlcNAc(b1-3)GalNAc
# Outline: (§1)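 The binding signal is a Z-score computed within each array and averaged over linkers. Arrays of the same protein sequence at different concentrations or buffers were also averaged together. Data originate from 3228 arrays in the Consortium for Functional Glycomics database, kept only where the protein sequence was available.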
# [2] = molecular target: Neu5Ac(a2-6)Gal(b1-4)GlcNAc(b1-3)[Neu5Ac(a2-6)Gal(b1-4)GlcNAc(b1-6)]GalNAc
# Outline: as §1
# [3] = molecular target: Neu5Ac(a2-6)Gal(b1-4)GlcNAc(b1-6)GalNAc
# Outline: as §1
# [4] = molecular target: Neu5Ac(a2-6)Gal(b1-4)GlcNAc(b1-6)[Gal(b1-3)GlcNAc(b1-3)]Gal(b1-4)Glc
# Outline: as §1
# [5] = molecular target: Neu5Ac(a2-6)Gal(b1-4)GlcNAc6S
# Outline: as §1
# Neu5Ac(a2-6)GalNAc = molecular target: Neu5Ac(a2-6)GalNAc
# Outline: as §1
# [6] = molecular target: Neu5Ac(a2-6)GalNAc(b1-4)GlcNAc
# Outline: as §1
# [7] = molecular target: Neu5Ac(a2-6)GalNAc(b1-4)GlcNAc6S
# Outline: as §1
# [8] = molecular target: Neu5Ac(a2-6)GlcNAc(b1-4)GlcNAc
# Outline: as §1
# [9] = molecular target: Neu5Ac(a2-6)GlcNAc(b1-4)GlcNAc(b1-4)GlcNAc
# Outline: as §1
# Neu5Ac(a2-8)Neu5Ac = molecular target: Neu5Ac(a2-8)Neu5Ac
# Outline: as §1
# [10] = molecular target: Neu5Ac(a2-8)Neu5Ac(a2-3)Gal(b1-3)GalNAc(b1-4)[Neu5Ac(a2-8)Neu5Ac(a2-3)]Gal(b1-4)Glc
# Outline: as §1
# [11] = molecular target: Neu5Ac(a2-8)Neu5Ac(a2-3)Gal(b1-4)Glc
# Outline: as §1
# [12] = molecular target: Neu5Ac(a2-8)Neu5Ac(a2-3)[Gal(b1-3)GalNAc(b1-4)]Gal(b1-4)Glc
# Outline: as §1
# [13] = molecular target: Neu5Ac(a2-8)Neu5Ac(a2-3)[GalNAc(b1-4)]Gal(b1-4)Glc
# Outline: as §1
# [14] = molecular target: Neu5Ac(a2-8)Neu5Ac(a2-8)Neu5Ac
# Outline: as §1
# [15] = molecular target: Neu5Ac(a2-8)Neu5Ac(a2-8)Neu5Ac(a2-3)Gal(b1-4)Glc
# Outline: as §1
# [16] = molecular target: Neu5Ac(a2-8)Neu5Ac(a2-8)Neu5Ac(a2-3)[GalNAc(b1-4)]Gal(b1-4)Glc
# Outline: as §1
# [17] = molecular target: Neu5Ac(a2-8)Neu5Ac(a2-8)Neu5Ac(a2-8)Neu5Ac(a2-3)[GalNAc(b1-4)]Gal(b1-4)Glc
# Outline: as §1
# [18] = molecular target: Neu5Ac(b2-6)Gal(b1-4)GlcNAc
# Outline: as §1
# Neu5Ac(b2-6)GalNAc = molecular target: Neu5Ac(b2-6)GalNAc
# Outline: as §1
# [19] = molecular target: Neu5Ac9Ac(a2-3)Gal(b1-3)GlcNAc
# Outline: as §1
# [20] = molecular target: Neu5Ac9Ac(a2-3)Gal(b1-4)GlcNAc
# Outline: as §1
# [21] = molecular target: Neu5Ac9Ac(a2-6)Gal(b1-4)GlcNAc
# Outline: as §1
# [22] = molecular target: Neu5Gc(a2-3)Gal(b1-3)GlcNAc
# Outline: as §1
# [23] = molecular target: Neu5Gc(a2-3)Gal(b1-3)[Fuc(a1-4)]GlcNAc
# Outline: as §1
# Neu5Gc(a2-3)Gal(b1-4)Glc = molecular target: Neu5Gc(a2-3)Gal(b1-4)Glc
# Outline: as §1
# [24] = molecular target: Neu5Gc(a2-3)Gal(b1-4)GlcNAc
# Outline: as §1
# [25] = molecular target: Neu5Gc(a2-3)Gal(b1-4)[Fuc(a1-3)]GlcNAc
# Outline: as §1
# [26] = molecular target: Neu5Gc(a2-6)Gal(b1-4)GlcNAc
# Outline: as §1
# Neu5Gc(a2-6)GalNAc = molecular target: Neu5Gc(a2-6)GalNAc
# Outline: as §1
# [27] = molecular target: Neu5Gc(b2-6)Gal(b1-4)GlcNAc
# Outline: as §1
binder,measurement,setting,value
B1,glycan array binding signal (z-score),[1],-0.234
same,glycan array binding signal (z-score),[2],-0.274
same,glycan array binding signal (z-score),[3],-0.268
same,glycan array binding signal (z-score),[4],-0.275
same,glycan array binding signal (z-score),[5],-0.244
same,glycan array binding signal (z-score),Neu5Ac(a2-6)GalNAc,-0.253
same,glycan array binding signal (z-score),[6],-0.251
same,glycan array binding signal (z-score),[7],-0.272
same,glycan array binding signal (z-score),[8],-0.248
same,glycan array binding signal (z-score),[9],-0.245
same,glycan array binding signal (z-score),Neu5Ac(a2-8)Neu5Ac,-0.248
same,glycan array binding signal (z-score),[10],-0.273
same,glycan array binding signal (z-score),[11],-0.245
same,glycan array binding signal (z-score),[12],-0.271
same,glycan array binding signal (z-score),[13],-0.245
same,glycan array binding signal (z-score),[14],-0.245
same,glycan array binding signal (z-score),[15],-0.241
same,glycan array binding signal (z-score),[16],-0.245
same,glycan array binding signal (z-score),[17],-0.244
same,glycan array binding signal (z-score),[18],-0.243
same,glycan array binding signal (z-score),Neu5Ac(b2-6)GalNAc,-0.243
same,glycan array binding signal (z-score),[19],-0.251
same,glycan array binding signal (z-score),[20],-0.251
same,glycan array binding signal (z-score),[21],-0.245
same,glycan array binding signal (z-score),[22],-0.245
same,glycan array binding signal (z-score),[23],-0.251
same,glycan array binding signal (z-score),Neu5Gc(a2-3)Gal(b1-4)Glc,-0.241
same,glycan array binding signal (z-score),[24],-0.247
same,glycan array binding signal (z-score),[25],-0.236
same,glycan array binding signal (z-score),[26],-0.247
same,glycan array binding signal (z-score),Neu5Gc(a2-6)GalNAc,-0.251
same,glycan array binding signal (z-score),[27],-0.244
